# The campaign covered roughly 410,000 compounds. About 7,200 (1.8%) were called active. The shares of active, inactive and inconclusive entries below differ from those in the screen. The call rests on the fitted dose curve; in most records, active means well fitted activation curve with a large enough effect; inconclusive means small, poorly fitted or top-dose-only effect, or another doubt; inactive means no such curve, though single readings can be large or run the other way. Potencies of inconclusive entries are left out as doubtful fits.
# Assay: qHTS of TDP-43 Inhibitors; further: nearly all actives have a fitted effect of over 50% in size; on growth rescue (activation): % of control where 0% means no effect
# Settings: TDP-43 expressing yeast growth rescue, BacTiter-Glo, 24 h; growth rescue (activation): at 46.1 µM (top of the series) unless noted
# Outline: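 Galactose-induced TDP-43 yeast, OD600=0.02, compound pinned; 24 hr, 30 deg C; BacTiter-Glo luminescence for growth. Inhibitors of TDP-43 toxicity read as activators.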
# Potency means the concentration at half of the fitted maximal effect; tags describe the fitted curve by direction and shape.
SMILES,Potency,growth rescue (activation)
O=C(CSc1nncs1)Nc1ccc(N2CCCCC2)cc1,"inconclusive [activator, partial curve]",
CSc1ccc(OC2CCCCC2NS(=O)(=O)c2ccc(Cl)cc2)cc1 (stereo not drawn),"inconclusive [activator, single point]",
O=C(NCCc1cccs1)C1CC(c2ccccc2[N+](=O)[O-])=NO1 (stereo not drawn),"inconclusive [activator, partial curve, poor fit]",
COc1ccc(-c2nn3c(C4CCCCC4)nnc3s2)cc1OC,active: 20 µM,
O=c1cc(Cl)[nH]c(=O)n1Cc1ccccc1,"inconclusive [activator, single point]",
Cc1nc2ccccc2cc1OCc1ccc(Cl)cc1,"inconclusive [activator, partial curve]",
COCC1CCN(C(=O)c2cc(COc3ccc(C)c(C)c3)on2)C1 (stereo not drawn),"inconclusive [activator, full curve, poor fit]",
CC(=O)c1cccc(NC(=O)C2CCN(S(=O)(=O)c3ccc4c(c3)CCCN4C(C)=O)CC2)c1,inactive,
Clc1ccccc1C1=Nn2c(nnc2-c2ccncc2)SC1,active: 11.2 µM,
COCCNC(=O)c1csc(Nc2cccc3ccccc23)n1,inactive,
COc1ccc(OCC(=O)NC2CCSc3ccccc32)cc1 (stereo not drawn),"inconclusive [activator, partial curve]",
Cc1cccc(Cc2cccc(C)c2O)c1O,"inconclusive [activator, single point]",
Cc1ccc(O)c(-c2cc(-c3ccccc3F)[nH]n2)c1,inactive,
COC(=O)c1cc(COC(=O)c2nc3nc(C)cc(C)n3n2)oc1C,"inconclusive [activator, partial curve]",
O=C(Nc1ccc2ccccc2c1)C(c1ccc(C(F)(F)F)cc1)n1c(=O)c(-c2cc3ccccc3[nH]2)nc2ccccc21 (stereo not drawn),"inconclusive [activator, full curve, poor fit]",
Cc1cccc(-n2nnc3cnn(C)c3c2=O)c1,"inconclusive [activator, partial curve]",
CC(C)(C)C1CCc2c(sc(NC(=O)c3cc4ccccc4c(=O)o3)c2C(N)=O)C1 (stereo not drawn),"inconclusive [activator, partial curve]",
O=C(Nc1nc(-c2ccc(Cl)cc2)cs1)C1=COCCO1,"inconclusive [activator, full curve]",
COc1ccc(C2=NN(C(=O)CSc3nc(=O)n4cccc(C)c4n3)C(c3ccc(C)cc3)C2)cc1 (stereo not drawn),"inconclusive [activator, single point]",
COCCCNC(=O)COc1ccc2oc3c(c2c1)CCCC3,"inconclusive [activator, single point]",
Cc1ccc(C)c(NC(=O)CN(C)S(=O)(=O)c2cccc3nsnc23)c1,inactive,
Cc1scc(C(=O)N2CCN(c3ccc(Cl)cc3)CC2)c1C,active: 14.1 µM,
CCC(CC)C(=O)Nc1ccc2nc(SCC(=O)N3CCCC3)sc2c1,inactive,
CCc1cccc(C)c1NC(=O)c1cc(S(=O)(=O)N(Cc2ccc(C(=O)OC)cc2)Cc2ccc(OC)c(OC)c2)ccc1F,inactive,
CCOc1ccc2oc(C(=O)N3CCN(c4ccccc4OCC)CC3)c(C)c2c1,"inconclusive [activator, partial curve]",

SMILES,Potency,growth rescue (activation)
Cc1nc(N)sc1-c1csc(Nc2cccc(O)c2)n1,"inconclusive [activator, single point]",
Cc1ccccc1-c1noc(CCC(=O)NCCc2ccccc2)n1,"inconclusive [activator, partial curve]",
CC1CCCN(CC(=O)Nc2cc(S(=O)(=O)N3CCOCC3)ccc2N2CCCC2)C1 (stereo not drawn),"inconclusive [activator, partial curve]",
COc1cc(-c2nnc(SCC(=O)Nc3ccc4c(c3)OCCO4)o2)cc(OC)c1OC,"inconclusive [activator, partial curve]",
COCCN(Cc1ccccc1)C(=S)Nc1ccc(OC(F)F)cc1,"inconclusive [activator, partial curve]",
Cc1oc(-c2ccccc2)nc1C(=O)Nc1nccs1,"inconclusive [activator, full curve]",
Cc1ccc(OCCN2C(=O)c3ccccc3C2=O)c([N+](=O)[O-])c1,"inconclusive [activator, single point]",
CCC(C(=O)Nc1nnc(-c2ccco2)s1)c1ccccc1 (stereo not drawn),inactive,
CCOC(=O)C1=CCN(S(=O)(=O)c2ccccc2F)C1c1cccc(F)c1 (stereo not drawn),"inconclusive [activator, single point]",
Cc1cc(C)c(S(=O)(=O)c2ccccc2)c(OC(=O)c2c(F)cccc2F)n1,inactive,
COc1ccc(C)cc1NC(=O)C(Sc1nnc(-c2ccncc2)n1-c1ccc(Cl)cc1)c1ccccc1 (stereo not drawn),inactive,
O=C(Nc1cccc(-c2nc3ncccc3o2)c1)c1ccco1,"inconclusive [activator, partial curve]",
CN(C)c1ccc(/C=C/c2nc(-c3ccccc3O)n(-c3ccccc3)n2)cc1,inactive,
Cc1ccc(Nc2nc3ccccc3s2)c(C)c1,active: 25.1 µM,
Cc1ccc(O)c(NS(=O)(=O)c2cccc3nsnc23)c1,,inconclusive: 39.3% [activator]
CC(=O)c1cccc(Nc2nc(-c3cccnc3)cs2)c1,"inconclusive [activator, single point]",
CCn1cc(C(=O)OCC(=O)Nc2ccc(C)c(Cl)c2)c(=O)c2ccc(C)nc21,"inconclusive [activator, partial curve]",
CCc1sc(C(=O)Nc2nc(-c3ccccn3)cs2)cc1C,"inconclusive [activator, single point]",
O=C(Cc1cccc(NC(=O)C2CCCN(C(=O)c3ccccc3)C2)c1)Nc1ccc(C(=O)N2CCOCC2)cc1 (stereo not drawn),"inconclusive [activator, partial curve]",
C=CCc1cccc(CNc2ccc(Br)cc2)c1O,active: 22.4 µM,
O=[N+]([O-])c1cccc(-c2cc3ccccc3[nH]2)c1,"inconclusive [activator, full curve]",
COc1ccc(Nc2c(C)cccc2C)cc1,"inconclusive [activator, partial curve]",
CCCCOC(=O)c1ccc(NC(=O)CN2C(=O)NC3(CCCCCC3)C2=O)cc1,inactive,
OCc1cccc(-c2cnc3c(Nc4cccc(OC(F)(F)C(F)F)c4)nccn23)c1,active: 20 µM,
CCOc1cc(C(N)=O)cc(Cl)c1OCc1ccccc1,"inconclusive [activator, partial curve]",

SMILES,Potency,growth rescue (activation)
COc1cc(C)ccc1OCCOc1cc(C)ccc1Cl,"inconclusive [activator, partial curve]",
CC(C)(C)Cc1nnc(NC(=O)CSc2ccccc2)s1,"inconclusive [activator, partial curve]",
Oc1ccc(Oc2ccc(Oc3ccc(O)cc3)cc2)cc1,active: 20 µM,
S=C1NC(C23CC4CC(CC(C4)C2)C3)=CC(c2ccc3c(c2)OCO3)N1 (stereo not drawn),"inconclusive [activator, partial curve]",
Clc1ccc(C2=NN(c3ccccc3)C(c3ccco3)C2)cc1 (stereo not drawn),,inactive: -12.2% [at 1.82 µM]
CC1Oc2ccccc2N(CC(=O)NCc2ccc3c(c2)OCO3)C1=O (stereo not drawn),inactive,
CCc1nc2ccc(C(=O)NCCc3ccccc3OC)cc2nc1CC,"inconclusive [activator, single point]",
Clc1cccc(Cl)c1Cn1c(-c2cccnc2Cl)nc2ccccc21,"inconclusive [activator, single point]",
CC(C)(C)C(=O)NC(=S)Nc1ccc(F)cc1,"inconclusive [activator, single point]",
O=C(COC(=O)/C=C/c1ccc(F)cc1)NCc1ccc2c(c1)OCO2,inactive,
COc1ccc(-c2nc(C)ncc2-c2ccccc2)c(O)c1,"inconclusive [activator, partial curve]",
N#CC(C(=O)c1ccccc1Cl)=C1SCCCS1,active: 35.5 µM,
CC(=O)NC(C)CCc1ccccc1 (stereo not drawn),inactive,
CCSc1ncc(Cl)c(C(=O)N2CCN(c3ccccc3OC)CC2)n1,active: 35.5 µM,
CCOCCCNC(=O)c1ccc(-n2c(-c3ccccc3)cc3c2CCCC3)cc1,inactive,
COc1ccccc1S(=O)Cc1ccc(C(=O)NCCc2ccc(Cl)cc2)o1 (stereo not drawn),inactive,
CCCCNC(=O)c1ccc2c(c1)N(Cc1ccc(F)cc1)C(=O)c1ccccc1S2=O (stereo not drawn),"inconclusive [activator, partial curve]",
Cc1c(Br)c([N+](=O)[O-])nn1CCCC(=O)N1CCN(c2ccccc2)CC1,"inconclusive [activator, single point]",
COc1ccc(CNC(=S)Nc2ccccc2Cl)cc1,"inconclusive [activator, partial curve]",
COc1cc(Cl)nn(-c2ccccc2)c1=O,inactive,
O=C(/C=C/c1ccccc1)Nc1cc(-c2nc3cc(Cl)ccc3o2)ccc1Cl,"inconclusive [activator, full curve, poor fit]",
Cc1cccc(OCC(=O)Nc2cccc(OCc3cc(=O)n4cccc(C)c4n3)c2)c1,inactive,
CC(C(=O)NCCSCc1cccc(Cl)c1)N(c1ccccc1)S(C)(=O)=O (stereo not drawn),"inconclusive [activator, single point]",

# Source: PubChem BioAssay AID652104 (National Center for Advancing Translational Sciences (NCATS), 2013)
